From the supplement of paper PMC11876631
Residue numbers refer to the chain shown, from its start. Names may count otherwise. ± gives the standard deviation of the averaged measurements. Laboratory Escherichia coli strains with one amino-acid change in an essential protein, pooled on minimal glucose agar with carbenicillin or gentamicin at twice the control MIC (plus kanamycin and chloramphenicol for the plasmids), 48 h. Fold change of barcode share against drug-free plates; higher = less susceptible. Active = above 20 in both replicates (the paper's putatively resistant). '<' = one read or none on drug, '>' = one read or none on a drug-free plate. Shares are relative, so most strains fall below 1 when a few take over. Listed are strains with at least 15 reads on both drug-free plates, and hits; most hits rest on fewer reference reads. Replicate rank correlation about 0.5. Edits are read from barcodes.

B1: fabD V168P (protein)
chain: MTQFAFVFPGQGSQTVGMLADMAASYPIVEETFAEASAALGYDLWALTQQGPAEELNKTWQTQPALLTASVALYRVWQQQGGKAPAMMAGHSLGEYSALVCAGVIDFADAVRLVEMRGKFMQEAVPEGTGAMAAIIGLDDASIAKACEEAAEGQVVSPVNFNSPGQVPIAGHKEAVERAGAACKAAGAKRALPLPVSVPSHCALMKPAADKLAVELAKITFNAPTVPVVNNVDVKCETNGDAIRDALVRQLYNPVQWTKSVEYMAAQGVEHLYEVGPGKVLTGLTKRIVDTLTASALNEPSAMAAALEL
B2: fabD I243W (protein)
chain: B1 chain with P168V, I243W
B3: fabD L251P (protein)
chain: B1 chain with P168V, L251P
B4: fabD V261A (protein)
chain: B1 chain with P168V, V261A
B5: fabD I243D (protein)
chain: B1 chain with P168V, I243D
B6: fabD I243Q (protein)
chain: B1 chain with P168V, I243Q
B7: fabD V261Q (protein)
chain: B1 chain with P168V, V261Q
B8: fabD I243A (protein)
chain: B1 chain with P168V, I243A
B9: fabD V261W (protein)
chain: B1 chain with P168V, V261W
B10: fabD V261P (protein)
chain: B1 chain with P168V, V261P
B11: fabD L251W (protein)
chain: B1 chain with P168V, L251W
B12: fabD L251Q (protein)
chain: B1 chain with P168V, L251Q
B13: fabD L251D (protein)
chain: B1 chain with P168V, L251D
B14: fabD I169A (protein)
chain: B1 chain with P168V, I169A
B15: fabD L251A (protein)
chain: B1 chain with P168V, L251A

Biological target: Escherichia coli (laboratory strain)
Assay: barcode share on antibiotic plates over drug-free plates; higher = less susceptible
Description: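 A pool of E. coli strains, each edited to carry one amino-acid change in an essential protein, was grown for 48 h on minimal glucose agar with or without antibiotic; strain barcodes were sequenced; mean of two replicates.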

[1] = antibiotic: carbenicillin, 2× MIC (3.1 µg/mL)
[2] = antibiotic: gentamicin, 2× MIC (MIC 0.45 µg/mL)

| Protein | fold change of barcode share [1] | fold change of barcode share [2] |
| --- | --- | --- |
| B1 | 0.334 ± 0.18 | < 0.00895 |
| B2 | 1.44 ± 0.64 | < 0.00904 |
| B3 | 0.241 ± 0.052 | 0.00646 ± 0.0028 |
| B4 | 0.114 ± 0.02 | 0.11 ± 0.14 |
| B5 | 0.313 ± 0.15 | 0.00981 ± 0.0053 |
| B6 | 0.573 ± 0.43 | < 0.00798 |
| B7 | 0.223 ± 0.022 |  |
| B8 | 0.539 ± 0.51 | < 0.0125 |
| B9 | 1.99 ± 1.4 | < 0.0138 |
| B10 | 0.301 ± 0.19 | 0.474 ± 0.66 |
| B11 | 0.55 ± 0.16 | 0.00662 ± 0.0022 |
| B12 | 0.183 ± 0.035 | < 0.00476 |
| B13 | 0.341 ± 0.093 | < 0.00584 |
| B14 | 0.209 ± 0.085 | < 0.00531 |
| B15 | 0.299 ± 0.098 | < 0.00501 |
